# Several values for one entry are separate records, joined by “and”; a condition that tells them apart may be missing. Equal values may be shown once.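 Protocol summary: plate cells (96-well), add compound at 5 concentrations, incubate 48 h, interpolate endpoints linearly. At the GI50, growth is halved. TGI: concentration producing complete growth inhibition.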
# Tested on: NCI-H322M lung
# Test: growth of human tumour cells (NCI), 48 h
Compound,TGI,GI50 [µM]
Cn1c(NC(=O)NC23CC4CC(CC(C4)C2)C3)nc2ccccc21,> 100 µM,
CCN(CC)CCOc1ccc2c(C)c(C(=O)OC)oc2c1C(=O)/C=C/c1ccc(OC)cc1,4.07 µM,1.37
COC(=O)CC1CC2(C(=O)OC)c3[nH]c4ccccc4c3CCN2C1=O (configuration not stated),> 100 µM,
CN(/N=C\c1ccc2ccccc2c1)C1=NCCCN1,51 µM,
CCN1CCN(c2nc(NNC(=O)c3ccccc3)nc(N3CCN(C(c4ccccc4)c4ccccc4)CC3)n2)CC1,30.1 µM,4.48
COc1ccc(OCC(O)CN2CCN(c3ccc(Cl)cc3)CC2)cc1 (configuration not stated),> 100 µM,> 100
O=c1[nH]c2ccc([N+](=O)[O-])cc2nc1/C(=N/Nc1ccccc1)C(O)c1ccco1 (configuration not stated),> 100 µM,
CCCCCCCc1ccc(-c2nnc(N=Nc3ccc(OCCCCC)cc3)s2)s1,> 100 µM,
Cc1ccccc1Nc1nc2ccccc2nc1NS(=O)(=O)c1ccccc1,> 100 µM,
O=C(O)C1(C(O)c2ccccc2)SCCCS1 (configuration not stated),> 10 µM,
C=C(Cl)[C@@](Cl)(CBr)CC[C@@H](Br)C(C)(C)Cl,2.9 µM and 1.42 µM,
C=C1CC/C=C(\C)CC[C@H](C(=C)C)[C@@H](O)/C=C(/CO)CCC1O (some centres not stated),> 100 µM,48.5
CC[C@]1(Cc2ccc(OC)c(OC)c2)C=[N+]([O-])O[C@H](OC2CCCC2(c2ccccc2)c2ccccc2)[C@@H]1OC(=O)C(C)(C)C (some centres not stated),17 µM,
Cc1ccc(NCCN(C)C)c2c(=O)c3cc(O)ccc3sc12,18.3 µM,
O=C(/C=C(\[O-])c1ccccc1)CCCCCCC(=O)/C=C(\[O-])c1ccccc1.O=C(/C=C(\[O-])c1ccccc1)CCCCCCC(=O)/C=C(\[O-])c1ccccc1.O=C(/C=C(\[O-])c1ccccc1)CCCCCCC(=O)/C=C(\[O-])c1ccccc1.[Nd+3].[Nd+3],> 50 µM,> 50
COC(=O)[C@H](Cc1cn(C)cn1)NC(=O)[C@@H](NC(=O)Nc1cc(C(F)(F)F)cc(C(F)(F)F)c1)C(C)C,> 10 µM,> 10
O=NN(CCCl)C(=O)NC1CCCCC1,168 µM and 257 µM,179
CC(C)(CN1CCCCC1)C(=O)CC(SCCS(=O)(=O)O)c1ccc(Cl)cc1 (configuration not stated),21.1 µM,
CCOC(=O)c1csc(NC(=O)C(C)N2CCOCC2)n1 (configuration not stated),> 100 µM,
CCOC(=O)C1C(c2ccc(OC)cc2)c2c([nH]n(-c3ccccc3)c2=O)CC1(C)O (configuration not stated),> 100 µM,
C=CCN=C(N/N=C/c1ccc([N+](=O)[O-])o1)NS(=O)(=O)c1cc(C(=O)Nc2ccccc2)c(Cl)cc1SCC(N)=O,57.1 µM,16.3
CC(C)=Nn1cnc2c1NC(C)(C)N=C2C(N)=O,> 10 µM,
O=C1CNN=C(Cn2nc(-c3ccccc3)c3ccccc3c2=O)N1,> 100 µM,

Compound,TGI,GI50 [µM]
Cc1ccc(NC(=O)C(=O)Cc2cccc[n+]2[O-])cc1C,> 100 µM,
Oc1ccc(SCc2cc(O)ccc2O)cc1,> 100 µM,
O=C(O)CCC1NC(/C(=C/c2ccccc2O)NC(=O)c2ccccc2)OC1=O (configuration not stated),> 100 µM,
Cc1nc(-n2nc(-c3ccccc3)cc2-c2ccccc2)sc1C(=O)/C=C/c1ccccc1,> 100 µM,
CN(C)c1ccc(N=C2C=CC(=C(C#N)C#N)c3ccccc32)cc1,8.45 µM,
Cc1ccc(S(=O)(=O)N2CCC(C(=O)O)(c3ccccc3)CC2)cc1,> 100 µM,
COc1cc(OC)cc(-c2ccc(-c3ccc(C(=N)N)cn3)s2)c1,3.22 µM,1.74
c1cc2c(cc1[C@@H]1OC[C@@H]3[C@H]1CO[C@H]3c1ccc3c(c1)OCO3)OCO2,> 100 µM,
Cc1cc(=O)n2nc(CSc3nnc(Sc4cc(O)ccc4O)s3)sc2n1,> 100 µM,
CCOC(=O)c1c(-c2ccccc2)c(C)cn1C,> 10 µM,
COc1cc2c(cc1OC)C(=O)N(c1ccc(OCCN3CCCC3)cc1)C2=O,> 100 µM,
COC1OC(C(=O)O)C2OC(C)(C)OC12 (configuration not stated),> 100 µM,
C=CCOC(=O)N1c2ccc(O)cc2[C@@]23O[C@@]24[C@@H]1C#C/C=C\C#C[C@]3(O)C(=O)C[C@@H]4C,> 100 µM,
Cc1cc(C)nc(NS(=O)(=O)c2ccc(Nc3c4ccccc4nc4ccc(C(=O)Nc5ccc(S(=O)(=O)N=C(N)N)cc5)cc34)cc2)n1,> 100 µM,
C#CC#CC#CC#CC#CC#CC#CC#CC[C@@H]1OC[C@@H](COC(=O)O[C@@H](C(=O)O[C@H]2C[C@@]3(O)[C@@H](OC(=O)c4ccccc4)[C@@H]4[C@]5(OC(C)=O)CO[C@@H]5C[C@H](O)[C@@]4(C)C(=O)[C@H](OC(C)=O)C(=C2C)C3(C)C)[C@@H](NC(=O)c2ccccc2)c2ccccc2)O1,> 33.3 µM,0.448
c1ccc(Nc2nnc(CCCCCCCCc3nnc(Nc4ccccc4)o3)o2)cc1,> 100 µM,
COc1cc2cc3c(c(O)c2c(O)c1-c1c(OC)cc2cc4c(c(O)c2c1O)C(=O)O[C@H](C)C4)C(=O)O[C@H](C)C3,54.7 µM,17.9
CCOC(=O)c1cc2c3c(cc(OC)c2[nH]1)N(C(=O)OCC)CC3,> 100 µM,
O=C(Oc1ccc2c(c1)CN(Cc1ccccc1)CO2)c1ccccc1,32.9 µM,
COc1cc(/C=C2/Oc3c(OC)cccc3C2=O)ccc1O,> 100 µM,
CCN(CC)CCNc1ccc([N+](=O)[O-])c2sc3cc(Cl)ccc3c(=O)c12,35.5 µM,5.64
CC(C)=CC(=O)c1c(C(=O)O)nc2ccccc2[n+]1[O-],> 100 µM,

# — PubChem BioAssay (NCI)
